Experimental data reported in PubChem BioAssay AID488969 (Vanderbilt High Throughput Screening Facility, 2010).
Over roughly 110,000 compounds, “z-score” has its median near -0.1; the highest 2% begin near 2. The list shows a part of the results. The source made the active and inactive calls.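 The calls were made as follows: active = z-score in the third read window above 3 or below -3; inactive = the rest.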

biological target: Metabotropic glutamate receptor 8 (Rattus norvegicus) (UniProt P70579); experiment: rat mGluR8 modulators via GIRK flux, primary screen, cell-based, thallium flux, HTS (AID 488969); settings: HEK293 rat mGluR8, GIRK (G protein-gated inwardly rectifying potassium channel) thallium flux, FluoZin2; at 10 µM; stronger effect = higher value; submaximal glutamate (EC20) added with thallium
Chain of UniProt P70579 (P70579 whole entry, looked up): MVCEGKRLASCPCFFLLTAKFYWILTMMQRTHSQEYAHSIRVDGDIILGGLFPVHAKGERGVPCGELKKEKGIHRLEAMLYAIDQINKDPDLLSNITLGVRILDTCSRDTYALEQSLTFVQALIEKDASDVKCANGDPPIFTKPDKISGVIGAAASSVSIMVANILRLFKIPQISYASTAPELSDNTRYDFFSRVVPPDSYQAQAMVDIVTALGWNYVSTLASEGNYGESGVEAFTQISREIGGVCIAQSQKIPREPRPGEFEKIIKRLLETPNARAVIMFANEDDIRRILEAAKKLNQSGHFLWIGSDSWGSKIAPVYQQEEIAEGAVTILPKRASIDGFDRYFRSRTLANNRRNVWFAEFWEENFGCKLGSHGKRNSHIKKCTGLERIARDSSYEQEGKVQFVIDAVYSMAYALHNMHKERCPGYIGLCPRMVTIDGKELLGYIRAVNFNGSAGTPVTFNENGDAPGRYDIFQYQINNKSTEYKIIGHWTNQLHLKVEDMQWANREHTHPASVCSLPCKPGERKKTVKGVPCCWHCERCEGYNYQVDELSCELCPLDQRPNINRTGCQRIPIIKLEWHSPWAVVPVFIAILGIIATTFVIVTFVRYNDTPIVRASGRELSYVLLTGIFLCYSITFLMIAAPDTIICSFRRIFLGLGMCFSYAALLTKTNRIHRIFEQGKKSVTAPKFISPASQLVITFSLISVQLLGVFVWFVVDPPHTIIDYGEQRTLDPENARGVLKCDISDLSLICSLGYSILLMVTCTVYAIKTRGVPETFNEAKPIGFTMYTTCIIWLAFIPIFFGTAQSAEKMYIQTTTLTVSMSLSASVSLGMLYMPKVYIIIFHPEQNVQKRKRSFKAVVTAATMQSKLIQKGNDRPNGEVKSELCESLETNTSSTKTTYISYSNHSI

Row | Structure (SMILES) | z-score
1 | O=C(Nc1c(Cl)cc(Cl)cc1C(=O)NCc1cccnc1)c1ccc(Cl)cc1Cl | -0.128
2 | O=C(Nc1cccc([N+](=O)[O-])c1)c1cnccn1 | 0.337
3 | Cc1ccc(C(=O)/C=C/Nc2ccc3c(c2)OCO3)cc1 | -0.0443
4 | Cc1ccc(CN2CCC(c3nc4ccc(Cl)cc4[nH]3)CC2)cc1 | 1.44
5 | O=C1OC2CC3CC1CC(O)(C3)C2 (centres undefined) | -0.0418
6 | Cc1ccc(Oc2nc(CN3CCOCC3)nc3sc4c(c23)CCC(C)C4)cc1 (centres undefined) | -0.757
7 | CCOC(=O)C1CCN(Cc2cnc(Oc3ccc(N)cc3)s2)CC1 | -0.0165
8 | O=C(O)c1cccnc1Oc1ccccc1 | 0.0142
9 | CC(NC(=O)Cn1cnc([N+](=O)[O-])n1)c1ccccc1 (centres undefined) | 0.0249
10 | O=S(=O)(NCC1OCCc2ccccc21)c1ccc(S(=O)(=O)N2CCOCC2)cc1 (centres undefined) | -0.374
11 | CC(C)c1nc(N2CCN(C(=O)c3ccco3)CC2)c2c3c(sc2n1)CCCC3 | 1.42
12 | CCOC(=O)CSC1=C(C#N)C(c2ccc(Cl)cc2)C(C(=O)OC)C(=O)N1 (centres undefined) | 1.29
13 | C/C(=N\NC(=O)c1[nH]c2c([N+](=O)[O-])cc(C)cc2c1-c1ccccc1)c1cccnc1 | 0.0489
14 | COc1cccc(N2CCN(C3CC(=O)N(c4ccc(Cl)cc4)C3=O)CC2)c1 (centres undefined) | -0.638
15 | COc1ccc(/C=N/NC(=O)c2cnccn2)cc1O | -0.0916
16 | CCC(Sc1ccccc1C(=O)O)C(=O)O (centres undefined) | -0.394
17 | O=C(O)C1C2CCC(O2)C1C(=O)Nc1cnn(Cc2ccccc2)c1 (centres undefined) | -0.0973
18 | CCOc1ccccc1C(=O)OCC(=O)Nc1ccc(OC(F)F)cc1 | -0.388
19 | CCOc1ccc(-c2cc(CCCC(=O)Nc3cc(OC)ccc3OC)no2)cc1 | -0.187
20 | O=C1CN(C(=O)c2cc([N+](=O)[O-])ccc2Cl)C(c2ccc(F)cc2)c2cc(F)ccc2N1 (centres undefined) | -0.204
21 | O=C(c1ccccc1)N1CCN(C(=O)c2ccccc2Br)CC1 | -0.0492
22 | Cc1ccc(C(=O)OCC(=O)Nc2ccccc2C(F)(F)F)cc1S(=O)(=O)N1CCOCC1 | -0.128

Row | Structure (SMILES) | z-score
23 | CCN(CC)CCNC(=O)C1c2ccccc2C(=O)N(CCOC)C1c1ccc(F)cc1 (centres undefined) | -0.0764
24 | COc1ccc(N2CCN(Cc3nc(N)nc(Nc4ccc(C)c(Cl)c4)n3)CC2)cc1 | -0.0473
25 | O=c1cc(C(F)(F)F)[nH]c(=O)n1C1CCCCC1 | 0.885
26 | O=C(Nc1ccc2c(c1)OCO2)c1cccs1 | -0.16
27 | COc1cc(C2C(C#N)=C(N)Oc3c2ccc2ccccc32)ccc1OCC(=O)Nc1ccccc1C (centres undefined) | -0.124
28 | Cc1ccc(-c2nn3c(C)nnc3c3ccccc23)cc1S(=O)(=O)NCCN1CCOCC1 | -0.342
29 | O=C(CC1Sc2ccccc2NC1=O)OC(C(=O)NCCc1ccccc1)c1cccnc1 (centres undefined) | -0.222
30 | COc1ccc(S(=O)(=O)N2CCC(C(=O)NCc3ccccn3)CC2)cc1OC | -0.117
31 | O=C(O)/C(=C\c1ccccc1Cl)c1ccc(S(=O)(=O)N2CCCCC2)s1 | -0.879
32 | COc1ccc(S(=O)(=O)N2CCC(C(=O)Nc3cccc(Cl)c3)CC2)cc1OC | -1.49
33 | CC(C)(C)c1ccc(/C=C/C(=O)c2ccc(NC3=NCCCS3)cc2)cc1 | -0.346
34 | CCOCC(=O)Nc1cc(C(=O)Nc2cccc(C)c2C)ccc1Cl | 0.603
35 | CCCCc1ccc(S(=O)(=O)Nc2cc(C)on2)cc1 | 0.162
36 | CC(C)CCNc1nc2c(c(=O)[nH]c(=O)n2C)n1CC(O)COC(C)C (centres undefined) | 0.0126
37 | COc1ccc(/C=C/C(=O)NC(=S)NN2CCCCC2c2cccnc2)cc1 (centres undefined) | 0.454
38 | CCCCN(CCCC)C(=O)/C=C/c1cccc([N+](=O)[O-])c1 | -0.191
39 | CCN(CC(=O)NCc1ccc(F)cc1)Cc1nc2ccccc2c(=O)[nH]1 | 1.04
40 | Cc1cc2oc(=O)cc(CN3CCC(C)CC3)c2cc1Cl | 0.585
41 | Nc1nnc(SCCCC(=O)c2ccc(Br)cc2)s1 | 0.0024
42 | Cc1ccc(C2CC(=O)Nc3sc(C(N)=O)c(N)c32)cc1 (centres undefined) | -0.314
43 | O=C(NC1CCCCC1)N(CCN1CCCC1)Cc1cc2cc3c(cc2[nH]c1=O)OCCO3 | -0.421
44 | CS(=O)(=O)N(CC(=O)NCc1ccncc1)Cc1ccc(Cl)cc1 | -0.132

Row | Structure (SMILES) | z-score
45 | O=C(NC1CCN(Cc2ccccc2)CC1)c1c(F)cccc1F | -0.283
46 | O=C(c1cnn2ccccc12)N1CCN(C2CCCCC2)CC1 | 0.424
47 | CCOc1ccccc1N/C(=C(/C(Cl)=C(Cl)Cl)[N+](=O)[O-])n1cncn1 | -1.34
48 | O=C(c1c(F)cccc1F)N1CCN(c2ncccn2)CC1 | 0.0868
49 | COc1ccc(CC(=O)N/N=C/c2cccn2-c2ccc([N+](=O)[O-])cc2)cc1OC | -0.892
50 | O=C1CCN(C(=O)Nc2ccccc2)N1 | -0.103
51 | CC(C)(C)n1ncc2c(=O)n(CC(=O)c3ccccc3)cnc21 | -0.0514
52 | COc1ccc(Cl)cc1NC(=O)C1CC(=O)N(c2ccc(F)cc2)C1 (centres undefined) | 0.0135
53 | O=C(O)C1CCCN1S(=O)(=O)c1ccc2[nH]c(=O)c(=O)[nH]c2c1 (centres undefined) | 0.188
54 | Cc1ccc(Cl)cc1N1CCN(S(=O)(=O)c2ccc3c(c2)oc(=O)n3C)CC1 | -0.0595
55 | Cc1noc(C)c1COc1ccc(C(=O)OC(C)C(=O)Nc2ccc(N3CCOCC3)cc2)cc1 (centres undefined) | 1.49
56 | COc1cc2nc(SCc3ccc(F)cc3)n(Cc3cccs3)c(=N)c2cc1OC | 0.054
57 | Cn1c(-c2cc3c(C(F)(F)F)nn(C)c3s2)n[nH]c1=S | -0.114
58 | COc1ccccc1-n1c(SCC(=O)c2ccc(O)cc2O)nc2cc([N+](=O)[O-])ccc21 | 0.107
59 | COc1cc(CN2CCC(C(=O)N3CCN(c4ccccc4F)CC3)CC2)ccc1O | -1.28
60 | CC(=O)c1ccc(NC(=O)COC(=O)c2ccccc2Nc2ccccc2)cc1 | 0.00446
61 | CCCCn1c(C(C)NC(=O)CCC)nc2ccccc21 (centres undefined) | -0.443
62 | Cc1cc(-c2nc3c4c5c(sc4[nH]c(=O)n3n2)CCC5)c(C)o1 | 0.435
63 | CCC(=O)N1CCc2cc(S(=O)(=O)CCC(=O)Nc3ccc(F)c(F)c3)ccc21 | 0.0449
64 | Cc1ccc(N2CC(C(N)=O)CC2=O)cc1C (centres undefined) | 0.11
65 | CCOC(=O)c1ccccc1N/C=C1\CCCCC1=O | 0.954
66 | O=C1N/C(=N\N=C\c2cccs2)SC1Cc1cccc(Cl)c1Cl (centres undefined) | -0.0827

Row | Structure (SMILES) | z-score
67 | O=C1c2ccccc2S(=O)(=O)N1CC(O)Cn1ccc2ccccc21 (centres undefined) | -0.00873
68 | CC1Cc2ccccc2N1C(=O)COC(=O)c1cccnc1Cl (centres undefined) | -0.164
69 | CCN(CC)S(=O)(=O)c1ccc(O)c(NC(=O)c2ccc(N3CCOCC3)c([N+](=O)[O-])c2)c1 | -0.295
70 | COc1ccc(Nc2ncnc3sc(-c4ccccc4)cc23)cc1 | -0.272
71 | COC(=O)C1CSc2[nH]c(=O)sc2C1c1ccccc1 (centres undefined) | 0.00576
72 | COC(=O)c1cccc(Cn2c(Cl)c(/C=N/Nc3ccccc3C)sc2=O)c1 | -0.0909
73 | C(=C1/CCCC2=C1Nc1ncnn1C2c1ccccc1)/c1ccccc1 (centres undefined) | 0.372
74 | CCC(C)NC(=O)CSC1=Nc2ccccc2C2=NC(CCC(=O)NCc3ccco3)C(=O)N12 (centres undefined) | -0.161
75 | CC1=CN2C(=NC(=O)CC2(C)C(=O)N(CC(=O)NC2CCCC2)c2ccccc2C)C=C1 (centres undefined) | 0.0482
76 | Cc1nc(N)sc1-c1nnc(SCC(=O)Nc2nccs2)n1C | -0.154
77 | CCCCC(=O)Nc1sc2c(c1-c1nc3ccccc3s1)CCN(C(C)=O)C2 | -0.439
78 | Cc1noc(NC(=O)c2ccccc2)c1C#N | -0.212
79 | Cc1ccc(NC(=O)CCSc2nnnn2-c2ccc3c(c2)OCO3)cc1C | -0.59
80 | CS(=O)(=O)NCCC1=CCCCC1 | 0.209
81 | O=C(Nc1ccc(N2CCN(C(=O)c3ccco3)CC2)cc1)c1ccc2c(c1)OCO2 | 0.192
82 | Cc1cc(=O)oc(C)c1C(=O)N1CCCCC1 | -0.149
83 | CCCCOC(=O)Nc1nnc(CCc2ccccc2)s1 | 0.00958
84 | O=C(COC(=O)Cc1ccccc1[N+](=O)[O-])NCc1ccc(Cl)cc1 | -0.213
85 | CC(/C=C/c1ccc2c(c1)OCO2)=N\NC(=O)c1cccc([N+](=O)[O-])c1 | 0.646
86 | C1CCN(Cc2nnnn2C2CCCC2)CC1 | 0.0262
87 | CC(Sc1nnc(-c2cccs2)n1-c1ccccc1)C(=O)NCc1ccc2c(c1)OCO2 (centres undefined) | 0.443
88 | COc1ccc(C2=NN(C(C#N)c3ccc(OC)c(OC)c3)C(c3ccccc3)C2)cc1 (centres undefined) | -0.201

Row | Structure (SMILES) | z-score
89 | Cc1[nH]nc2c1C1(CCC3(CC1)OCCO3)C(C#N)=C(N)O2 | -0.155
90 | CCOC(=O)c1sc(N(C)C)nc1-c1ccccc1 | -0.559
91 | COc1ccc(/C=C/C(=O)c2ccccc2)cc1COc1ccc(F)cc1 | -0.00338
92 | CCC(C)(NC(=O)c1ccc(=O)[nH]c1)C(=O)NC1CCCC1 (centres undefined) | 0.0173
93 | CN(Cc1nc2ccccc2n1C)S(=O)(=O)c1ccc(F)cc1 | 0.229
94 | Cc1cccc2cc(COC(=O)c3cccs3)c(=O)[nH]c12 | -0.507
95 | CC1CC(=O)c2cnc(NCC3CCCO3)nc2C1 (centres undefined) | 0.252
96 | CSCCC(NC(=O)c1ccccc1)C(=O)OCC(=O)c1ccc[nH]1 (centres undefined) | -0.554
97 | COc1cc(/C=C2/SC(=S)N(CC(=O)Nc3cccnc3)C2=O)cc(OC)c1OC | 0.317
98 | CCOC(=O)C1CCCN(Cc2ccc3c(c2)OCO3)C1 (centres undefined) | -0.574
99 | O=C(Nc1ccc(Br)cc1)C1CCC(=O)N1Cc1ccccc1Cl (centres undefined) | active: 4.3
100 | O=C(CCN1C(=O)C2C3C=CC(C3)C2C1=O)Nc1ccccn1 (centres undefined) | 0.89
101 | CCN(CC)CCOc1ccc2c(c1)C(=NO)c1cc(OCCN(CC)CC)ccc1-2 | 1.22
102 | Cc1cc(C)n(C(=O)CNC(=O)c2ccco2)n1 | 0.615
103 | COc1cc(/C(C)=N/NC(=O)CSc2nncn2C)ccc1OCc1ccccc1Cl | -0.378
104 | Cc1nc2ccc(S(=O)(=O)NCC(=O)N(C)Cc3ccco3)cc2s1 | 0.315
105 | O=C(N/N=C(/CC(=O)c1cccs1)C(F)(F)F)c1ccc(O)cc1 | -0.828
106 | CC(C)NS(=O)(=O)c1cccc2nsnc12 | -0.236
107 | CCNC(=O)CN1C(=O)NC(CCc2ccccc2)C1=O (centres undefined) | -0.12
108 | COc1ccccc1-n1cnnc1SC1CCOC1=O (centres undefined) | 0.0218
109 | O=C(C1CCCCN1S(=O)(=O)c1ccc(F)cc1)N1CCN(c2ccccc2F)CC1 (centres undefined) | -0.386
